Laboratory results from the RNAGym collection of RNA variant scans (doi:10.1073/pnas.2313332121).
Variants at the floor of the assay are shown more often than the library holds them.

B1: TPR 5TU (parent)
chain: GGAUCUUCUCGAUCUAACAAAAAAGACAAAUCUGCCACAAAGCUUGAGAGCAUCUUCGGAUGCAGAGGCGGCAGCCUUCGGUGGCGCGAUAGCGCCAACGUUCUCAACUAUGACACGCAAAACGCGUGCUCCGUUGAAUGGAGUUUAUCAUG

Variants of: B1
Experiment: polymerase ribozyme fitness, log enrichment relative to wild type (log ratio); higher = more active; in vitro selection for triplet polymerase activity
How it was run: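 Each subunit of a heterodimeric triplet polymerase ribozyme was mutagenized into a library by PCR, transcribed, and subjected to one round of in vitro selection, run in triplicate. Libraries were annealed with a biotinylated primer, the partner subunit and triplets, incubated frozen at −7 °C, and extended constructs were gel-excised, captured on streptavidin beads and recovered by RT-PCR. Input and output libraries were sequenced on Illumina, keeping genotypes with ≥10 input reads and ≥1 read per output. Fitness is log base 2 of genotype enrichment divided by wild-type enrichment, from inverse-variance-weighted replicate averages.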

Row | Variant | polymerase ribozyme fitness (log ratio)
1 | A52C C85U U102C | -2.57
2 | G50U C51G G83A U90A G92C A98U U109A | ≤ -4.2
3 | G50A G92A | ≤ -4.2
4 | G50U G70A C93U U104G | ≤ -4.2
5 | A52C C105U A115G G140C A142C A150C | ≤ -4.2
6 | A52C A60G A91G C93G A120G A137U | ≤ -4.2
7 | C51U A107G | ≤ -4.2
8 | C51A A52U C63U C99G A106C A119G G126U | ≤ -4.2
9 | A52C U53A U55G U56C A60G G88A G92A U104G C108A A115U | ≤ -4.2
10 | C51U C85G A107C | ≤ -4.2
11 | A52C C54U G67U U82G G86C C87U | ≤ -4.2
12 | G50A G94C C95G U144C | ≤ -4.2
13 | G50A G58A A113G G117C G141C | ≤ -4.2
14 | C51U G88C A137C | ≤ -4.2
15 | C51U G92C U135C | -3.1
16 | C51G C95G U139A G140U A150C | ≤ -4.2
17 | C51A G86U C108G A137C | ≤ -4.2
18 | G50C G58A A60C C87G G133U | ≤ -4.2
19 | C51U G59U C87G A97U | ≤ -4.2
20 | G50A U53A A66U | ≤ -4.2
21 | G50C A52C C54U G59U A60C C72A A91U C125A | ≤ -4.2
22 | A52G A66C | ≤ -4.2
23 | C51U G62A U139G | -0.262
24 | G50U G92A G136U | ≤ -4.2

Row | Variant | polymerase ribozyme fitness (log ratio)
25 | A52C G92U C103G A106C | ≤ -4.2
26 | G50C U55A | -3.29
27 | G50U C54G A150U | -2.15
28 | A52C U55A G71C U78A C87G A110C | ≤ -4.2
29 | A52C G83C A98G A107G | ≤ -4.2
30 | C51U G71U G88C A89G A147C | ≤ -4.2
31 | A52C U101G G140C | ≤ -4.2
32 | G50A C72U A98C C99A | ≤ -4.2
33 | A52G A60U C85A G94U C96G | -3.93
34 | A52C G59A G68A C79U G92U U104G | ≤ -4.2
35 | G50U C95G | -0.905
36 | G50C G67A G86C A91U U139A | ≤ -4.2
37 | G50C G65U C85A | ≤ -4.2
38 | G50A C57A C85A A91C A98C A121U G128U U135G A142U G143A | ≤ -4.2
39 | C51G C95U C105U A142C | ≤ -4.2
40 | C51A A52G | -0.455
41 | G50A C69G C87G C116A | ≤ -4.2
42 | G50A G83C U146G | -2.55
43 | C51G G84U | -3.11
44 | C51A C95U C118U U135A | -2.41
45 | G50A C57A C76G C93G | ≤ -4.2
46 | C51A U56A C76G G143A C149G | ≤ -4.2
47 | G50U C79A C103G | ≤ -4.2
48 | A52C C54G C93G G94U C96G C125G U148G | ≤ -4.2

Row | Variant | polymerase ribozyme fitness (log ratio)
49 | C51U U53A C96G G124U A147U | -3.84
50 | G50C A52G U90G G94A G136C | ≤ -4.2
51 | C51U G94A | -1.11
52 | C51U G94C | -0.484
53 | C51A G84A U144A | -2.52
54 | G50A A52C G81C | -2.82
55 | A52C U55A U56A G86C | -4.01
56 | C51U U82A G88U | ≤ -4.2
57 | G50C C118G G140A | ≤ -4.2
58 | C51U U56G G88C U102G | ≤ -4.2
59 | A49U G70C G117C | ≤ -4.2
60 | G50A C54G C79G C85A | ≤ -4.2
61 | A52C C87A U104G | ≤ -4.2
62 | C51U C76U C96U A137U U144C U151A | ≤ -4.2
63 | A52C U55C G81C G83A C105G | ≤ -4.2
64 | G50C C54U C103A | ≤ -4.2
65 | G50A A142C | -3.12
66 | A52C C85A | -3.22
67 | G50C G59C G83A | -3.91
68 | C51U C69A G84U A91G G133A U144A A147U | ≤ -4.2
69 | A52G C75U A110G C129A | ≤ -4.2
70 | C51A G74A C95U U102G C108G U111G | ≤ -4.2
71 | G50A U55A C95A | -1.86
72 | G50U G71C U77C | ≤ -4.2

Row | Variant | polymerase ribozyme fitness (log ratio)
73 | G50U A66C C76U U82G A89G A138U | ≤ -4.2
74 | C51U C96G U144A | -1.45
75 | G50C G58A C87U U104G | ≤ -4.2
76 | C51U U90C A91U A110G U148G | ≤ -4.2
77 | C51G A73U C93G C131A | ≤ -4.2
78 | G50A A60U C96U U127A | -3.79
79 | G50A G59C U90G | ≤ -4.2
80 | A52G A66G C96G U104G U135G | ≤ -4.2
81 | G50U G92A | -2.93
82 | A52C U55C C87U A91C A97G | ≤ -4.2
83 | A52C G59C G88C A98G | ≤ -4.2
84 | G50U G94A A113G A147C | -3.89
85 | G50C A52C | -2.71
86 | C51U C54U C76A G86A | -2.96
87 | A52C G88A U127C | ≤ -4.2
88 | G50U U55A C96U | -0.864
89 | G50U C87G G112A | ≤ -4.2
90 | C51U U56A G71C G84A G140A A142U | ≤ -4.2
91 | A52C U56A U78A U109G A150G | ≤ -4.2
92 | A52C G58A A91U C108G C131U | ≤ -4.2
93 | C51A G100U U102G | ≤ -4.2
94 | A52G C87U C93U C131A G136A G143C U145G U146G | ≤ -4.2
95 | G50C U104G | ≤ -4.2
96 | G50A A52C | -3.13

Row | Variant | polymerase ribozyme fitness (log ratio)
97 | G50A C75G G88C G143C | ≤ -4.2
98 | G50C C76U C85U C116G | -2.09
99 | A52G C69G C93U | ≤ -4.2
100 | A52C C57G G58A G84A A91U G126A A150G | ≤ -4.2
101 | A52C C85U A150C G152U | ≤ -4.2
102 | C51G C87A | ≤ -4.2
103 | C51G G70A G71A C114A A142C U146A | ≤ -4.2
104 | G50A C57A A66C G81U G86C A97C | ≤ -4.2
105 | C51A G58A G74A C95U U109A G136A | ≤ -4.2
106 | G50C C93U U104G G136U G141A | ≤ -4.2
107 | G50A U82C | -0.783
108 | C51G U56A A89U A119C C129U | ≤ -4.2
109 | G50C C85G | ≤ -4.2
110 | A52C U55A C85G C116A | -3.78
111 | A52C G84A C116G A120U | -1.12
112 | C51U C95A G126U A138U A142C | ≤ -4.2
113 | C51G G74A C79G G86U C87U | ≤ -4.2
114 | A52G C79G G83U U102C | ≤ -4.2
115 | G50C C57U C79U C85U C149U | ≤ -4.2
116 | G50U C75G C87A | ≤ -4.2
117 | G50A U77G C95U C105A C149A | ≤ -4.2
118 | C51U A66U G81A C87G | ≤ -4.2
119 | C51U U151G | ≤ -4.2
120 | C51U A89G A97G G143U | -3.43

Row | Variant | polymerase ribozyme fitness (log ratio)
121 | C51U C57A G83C A106G | -0.97
122 | A52C G67A C85U G88C C116G A137U | ≤ -4.2
123 | C51G C85U | -1.91
124 | A49U U53A G86A C87A A89G C114U | ≤ -4.2
125 | G50C C72A U78C G88C A91U G92A C125U G141A G143U | ≤ -4.2
126 | A52C U56A C72U A73G U77G U78G C87A A89U | ≤ -4.2
127 | A49U U55A C57A G62C A110G A150G | ≤ -4.2
128 | G50C G71U A121G | ≤ -4.2
129 | C51U A52G A60U A66G C103U A107U C114U C123G G143A | ≤ -4.2
130 | G50C U104C C116A G143U | ≤ -4.2
131 | A52G C87A A97U A107U G140U | ≤ -4.2
132 | G50U A52G | -0.0259
133 | G50A U56A C93A U127G A150U | ≤ -4.2
134 | A52G C76U C85G C123A U144G | -0.879
135 | G50A C57G G83C C96U A107G G133C G136A U148C | ≤ -4.2
136 | C51A C85A G141A | -1.93
137 | G50A U56C | -1.2
138 | C51U C103G U148G | ≤ -4.2
139 | A52C C96U C103G | ≤ -4.2
140 | C51U C54U C85A A98U | -2.81
141 | G50C U130C | -1.3
142 | G50U G83A | -0.347
143 | G50U G83C | -0.813
144 | C51A C57G G67U C95U U101G | ≤ -4.2

Row | Variant | polymerase ribozyme fitness (log ratio)
145 | C51G C85G U90A C108A A113G G133U A150U | ≤ -4.2
146 | A52C C85G C87U G133A G143C | -4.07
147 | G50U C93U | -2.05
148 | A52G A137C | -3.28
149 | G50U G58U A89G G140C | ≤ -4.2
150 | C51G A64C C69U G80A G86A C96U C114A | ≤ -4.2
151 | G50A G84A U101C G117C U146G | -0.884
152 | A52C C85G A97G U151C | ≤ -4.2
153 | G50U C79A C114U U127A | ≤ -4.2
154 | C51A C75U | -2.27
155 | C51U U56A A73U G86A | -4.02
156 | C51U G141C | -0.423
157 | A52C U53G G83C G92U C105U A106C | ≤ -4.2
158 | G50C A52G C57U C93A | ≤ -4.2
159 | C51U U102G | ≤ -4.2
160 | C51A G74A | ≤ -4.2
161 | A52C G84A G88C | -4.09
162 | G50C C54U C85U C125U | -4.17
163 | C51U C87U | -1.13
164 | A52C G94A | -0.384
165 | G50C C63G G94C C103A C132U | -4.08
166 | C51U C75G G88A U130A | ≤ -4.2
167 | G50U G84A A91U C116A | ≤ -4.2
